Test results reported in PubChem BioAssay AID1347073 (National Center for Advancing Translational Sciences (NCATS), 2019).
The whole screen tested about 45,000 compounds, of which about 200 (0.44%) were called active. Another 7% or so got no clear call; they are omitted. Calls follow the shape of the dose curve; as a rule, active = well fitted activation curve with a large enough effect; inconclusive = small, poorly fitted or top-dose-only effect; inactive = no such curve, though single readings can be large or run the other way. The list shows a part of the results.

experiment: qHTS of TDP-43 Inhibitors: NCGC Sytravon Library Screen; details: yeast TDP-43 toxicity rescue, BacTiter-Glo growth, 24 h; series mostly up to 46.1 µM; growth rescue (activation): at the top concentration; also: nearly all actives have a fitted effect of over 55% in size; as to growth rescue (activation): 0% is about no effect
Summary of the method: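 TDP-43-expressing yeast, pregrown in raffinose, seeded at OD600 0.02 in galactose medium with compound for 24 hr at 30 deg C. Growth read by BacTiter-Glo luminescence, so rescue of toxicity appears as activation.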
Potency is read from the fitted curve at half-maximal effect.

SMILES	growth rescue (activation)	Potency
O=C(O)c1nc(Cl)c(Cl)c(N/N=C/c2ccccc2C(F)(F)F)c1Cl	inactive: -5.78%	
CCN(c1ccc(Cl)cc1)S(=O)(=O)c1nnc(NC(=O)C(C)C)s1	inactive: 4.85%	
COc1cc(NC(=O)CCn2c(=S)oc3ccccc32)cc(OC)c1OC	inactive: 6.52%	
COc1cccc(NC(=S)N(CCN(C)C)C(C)c2ccco2)c1 (stereo unspecified)	inactive: -3.03%	
Cc1ccccc1/C=C/C(=O)N1CCOCC1	inactive: 10.1%	
Cc1cc(C)nc(NS(=O)(=O)c2ccc(N3C(=O)C4CCCCC4C3=O)cc2)n1 (stereo unspecified)	inactive: 0.567%	
COc1ccccc1C(=O)N1CCCC(C)(C(=O)NS(=O)(=O)C2CC2)C1 (stereo unspecified)	inactive: -1.93%	
O=C(COc1cccnc1[N+](=O)[O-])Nc1cccc(Br)c1	inactive: 18.6%	
FC(F)Oc1ccc(NC(=S)NC2CCCCCCC2)cc1	inactive: 26.5%	
N=c1c(C(=O)NCC2CCCO2)cc2c(=O)n3ccccc3nc2n1Cc1ccccc1Cl (stereo unspecified)	inactive: -17.7%	
Cc1ccc(S(=O)(=O)NC(=NC2CCCCC2)c2ccccc2)cc1	inactive: 5.19%	
COc1ccc(NC(C)=O)cc1S(=O)(=O)NC(Cc1ccccc1)C(=O)NCc1ccccc1C (stereo unspecified)	inactive: 15.2%	
COc1ccc([N+](=O)[O-])cc1NC(=O)CSc1nc(C)cc(C)n1	inactive: -4.82%	
CC(C)(C)NC(=O)COC(=O)c1cc(Cl)ccc1[N+](=O)[O-]	inactive: 24.7%	
CN(C)CCNC(=O)C1CCN(S(=O)(=O)c2ccc3ccccc3c2)CC1	inactive: -2.54%	
O=C(COC(=O)CCc1nc2ccccc2c(=O)[nH]1)NC(=O)NC1CCCC1	inactive: -22%	
COc1ccc(-n2c(SC)nc3sc4c(c3c2=O)CCN(C)C4)cc1	inactive: -7.76%	
CC(C)NC(=O)c1cc(C2CCCCN2S(=O)(=O)c2ccccc2)on1 (stereo unspecified)	inactive: 5.84%	
CCC(C)NC(=O)Cn1cc(S(=O)(=O)N2CCN(c3ccccc3F)CC2)c2ccccc2c1=O (stereo unspecified)	inactive: 5.21%	
CCN(CC)S(=O)(=O)c1ccc(NS(=O)(=O)c2ccc(O)c([N+](=O)[O-])c2)cc1	inactive: -5.15%	
OCC1(CCc2ccccc2)CCN(Cc2ccc(OC(F)F)cc2)CC1	inactive: 4.17%	
CCOc1cc(S(=O)(=O)NCc2cccnc2)c(C)cc1C	inactive: 14.1%	
c1ccc2oc(-c3ccc(Nc4nc(N5CCOCC5)nc(N5CCOCC5)n4)cc3)nc2c1	inactive: 5.59%	
Cc1cccc2cc(CN(CCCO)C(=O)Nc3ccc(Cl)cc3)c(=O)[nH]c12	inactive: 25.6%	
COc1ccc(S(=O)(=O)N(C)c2ccc(C(=O)N3CCN(C)CC3)cc2)cc1	inactive: 2.75%	
COC(=O)c1sccc1NC(=O)c1ccccc1[N+](=O)[O-]	inactive: 33.9%	

SMILES	growth rescue (activation)	Potency
Cc1cccc(NC(=O)CN2CCN(CC(=O)Nc3ccc(-c4ccccc4)cc3)CC2)c1C	inactive: 12.1%	
O=C(Cn1c(=O)c2sccc2n(CC(=O)Nc2ccc(Cl)cc2Cl)c1=O)NCCc1ccccc1	inactive: 0.441%	
COc1ccc(NC(=O)CCC(=O)Nc2cc(OC)c(NC(=O)c3ccco3)cc2OC)c(OC)c1	inactive: 6.19%	
COc1ccc(NC(=O)c2ccc(-n3cnnn3)cc2)c([N+](=O)[O-])c1	inactive: 1.69%	
CCCCCCCCOC(=O)C(NC(=O)CCC(=O)Nc1ccc(S(N)(=O)=O)cc1)C(O)c1ccccc1 (stereo unspecified)	inactive: 10.1%	
CC(NC(=O)NCc1cccnc1)(C(F)(F)F)C(F)(F)F	inactive: -26.7%	
CCOC(=O)Cc1csc(N/N=C/c2cccc([N+](=O)[O-])c2)n1	inactive: -4.79%	
C/C(=N\NS(=O)(=O)c1ccc(C)cc1)c1ccc(C)o1	inactive: 10.7%	
COc1ccc(C(=O)OCC(=O)Nc2ccc([N+](=O)[O-])cc2OC)c(O)c1	inactive: 10.4%	
N#Cc1ccsc1NC(=O)CCN1CCN(C(c2ccccc2)c2ccccc2)CC1	inactive: -42.4%	
COCCNC(=O)NC(=O)COC(=O)C1(c2ccc(Cl)cc2)CC1	inactive: 3.53%	
CCNC(=O)C1(C)CCCN(C(=O)c2ccc3ccccc3n2)C1 (stereo unspecified)	inactive: -13.1%	
COc1cc(NC(=O)CN2CCC(Cc3ccccc3)CC2)c(C)cc1[N+](=O)[O-]	inactive: -6.56%	
Cc1cc(C(=O)CN2C(=O)C(=O)N(C)C2=O)c(C)n1-c1cccc(S(=O)(=O)N2CCOCC2)c1	inactive: 24.2%	
CCOc1cc(/C=N/Nc2ncc(C)c(=O)[nH]2)ccc1O	inactive: -0.445%	
O=C(CSc1nnnn1Cc1ccccc1)c1ccccc1F	inactive: 23.4%	
COc1cc(C)ccc1N(CCCN1C(=O)c2cccc3cccc(c23)C1=O)C(=O)c1cccs1	inactive: -11.3%	
Cc1ccccc1C(=O)NCCNC(=O)c1ccccn1	inactive: -9.96%	
COc1ccccc1N1C(=O)C2C(C(=O)c3ccccc3)=NN(c3ccc(Br)cc3)C2C1=O (stereo unspecified)	inactive: -11.5%	
CCNc1oc(COc2ccccc2F)nc1C#N	inactive: 36.1%	
CCn1c(SCC(=O)Nc2ccc(OC)cc2OC)nc2nc3c(cc2c1=O)COC(C)(C)C3	inactive: -2.96%	
Cc1ccc(S(=O)(=O)N(CCC(=O)Nc2ccc(OC(F)(F)F)cc2)c2ccccc2)cc1	inactive: -21.5%	
Cc1nn(C)c(C)c1CN(C(=O)CCc1nnc(Cc2c[nH]c3ccccc23)o1)C(C)C	inactive: 8.68%	
COc1ccccc1-c1cn(C(C)(C)C)nc1C		active: 11.2 µM
O=C(Nc1ccc(-c2ccc([N+](=O)[O-])cc2)cc1)c1ccccc1F	inactive: 1.42%	
FC(F)C(F)(F)Oc1cccc(Nc2nccn3c(-c4cccc5ccccc45)cnc23)c1	inactive: 3.44%	

SMILES	growth rescue (activation)	Potency
COc1ccc(CC(=O)Nc2cccc3ccccc23)cc1OC	inactive: 13.3%	
CCCN(CCC)C(=O)c1ccc2c(c1)N(CC)C(=O)c1ccccc1S2(=O)=O	inactive: 5.8%	
CCC(C)N(C(=O)CSc1nncn1C)C1CCS(=O)(=O)C1 (stereo unspecified)	inactive: 4.07%	
Cc1ccc(S(=O)(=O)C2(C(=O)N3CCN(c4ccccc4F)CC3)CC2)cc1	inactive: -0.908%	
O=C(CCc1nnc(Cc2c[nH]c3ccccc23)o1)NCC1CC12CCCCC2 (stereo unspecified)	inactive: 4.77%	
O=S1(=O)N=C(Nc2ccc(N3CCOCC3)c(Cl)c2)c2ccccc21	inactive: -5.29%	
CCN(CC(=O)NCc1ccc(F)cc1)C(=O)c1ccc(C(=O)c2ccccc2)cc1	inactive: 14.2%	
CCOC(=O)c1ccc(N2C(=O)C3CC=C(C)CC3C2=O)cc1 (stereo unspecified)	inactive: 24.6%	
COC(=O)c1ccccc1NC(=S)N(Cc1ccc2c(c1)OCO2)Cc1cc2ccc(C)cc2[nH]c1=O	inactive: 15.2%	
NC(=O)c1ccc(OCC(=O)N2CCNC2=O)cc1	inactive: 6.51%	
COc1ccccc1NC(=O)CC1CCCC1	inactive: 19%	
Cc1ccc(NC(=O)c2ccc(OC(F)(F)F)cc2)cc1S(=O)(=O)N(C)C	inactive: 20.8%	
CC1CN(C(=O)c2ccc(COc3ccccc3Br)o2)CC(C)O1 (stereo unspecified)	inactive: 24.5%	
COc1ccc(CSc2nnc(-c3ccncc3)n2C)cc1F	inactive: 12.3%	
CCN(CC)c1ccc(N=Nc2ncn[nH]2)cc1	inactive: -4.42%	
COc1cccc(/C=N/NC(=O)c2cccc(N3CCCC3=O)c2)c1	inactive: 10.3%	
CCCn1c(N)c(C(=O)COC(=O)/C=C/c2ccc(OC(F)F)c(OC)c2)c(=O)[nH]c1=O	inactive: 3.38%	
Cc1cc(C)c(C)c(Oc2ncnc(N)c2[N+](=O)[O-])c1	inactive: 20.7%	
CN(C)C(=O)CCC(=O)N1CCCC(C(=O)c2ccc3c4c(cccc24)CC3)C1 (stereo unspecified)	inactive: 5.3%	
Cc1ccc(S(=O)(=O)N2CCN(C(=O)c3ccccn3)CC2)cc1	inactive: -9.19%	
CC(C)(C)NC(=O)CN(C(=O)CCC(=O)Nc1nccs1)c1ccc(F)c(Cl)c1	inactive: -3.4%	
CCc1nccn1-c1cc(C(C)(C)C)nc2c(-c3ccc(Cl)cc3)cnn12	inactive: 2.45%	
Nc1nc(N2CCN(Cc3ccccc3)CC2)n[nH]1	inactive: -0.853%	
Cc1ccc(NS(=O)(=O)c2cccc(C(=O)NCCc3c[nH]c4ccccc34)c2)c(C)c1	inactive: -5.95%	
O=C1CCc2ccc(NS(=O)(=O)c3ccc(F)cc3)cc2N1	inactive: 8.26%	
O=C(Nc1nnc(Cc2ccc([N+](=O)[O-])cc2)s1)c1ccc2c(c1)OCO2	inactive: 9.3%	

SMILES	growth rescue (activation)	Potency
CSc1ccccc1NC(=O)COc1ccc(Cl)cc1Cl	inactive: -2.8%	
COc1cc(NC(=O)c2ncn[nH]2)cc(OC)c1OC	inactive: 33.3%	
O=C(Nc1ccc(Br)cn1)c1ccc(Br)s1	inactive: 11.4%	
COC(=O)c1cccc(N(CC(=O)NC2CCCC2)C(=O)CCC(=O)Nc2cc(C)on2)c1	inactive: -2.37%	
CCc1ccc(C(=O)Nc2cc(C)ccc2F)s1	inactive: 8.76%	
Cc1ccc(OCCN2CCC2(C)C(=O)NCc2ccc(C(F)(F)F)cc2)cc1 (stereo unspecified)	inactive: -7.92%	
COc1cccc(-c2csc(N3CCN(CC(=O)NNC(=O)c4ccco4)CC3)n2)c1	inactive: 4.73%	
Cc1cccc(C)c1N/C=C/c1onc(C)c1[N+](=O)[O-]	inactive: -21.4%	
Cc1cc(C)cc(OC(=O)CCN2C(=O)C3C4C=CC(C5CC45)C3C2=O)c1 (stereo unspecified)	inactive: 6.31%	
O=C(c1ccccc1NS(=O)(=O)c1cccc([N+](=O)[O-])c1)N1CCCC1	inactive: 1.12%	
CCN(CC)S(=O)(=O)c1ccc(OC)c(NC(=O)c2cc3c(=O)n4ccccc4nc3s2)c1	inactive: -7.15%	
Cc1cc(C)c2cc(CN(CCO)Cc3nnnn3Cc3ccccc3)c(=O)[nH]c2c1	inactive: 3.43%	
O=C(Nc1ccc2c(c1)OCCO2)c1coc2ccccc2c1=O	inactive: -14.2%	
CNS(=O)(=O)c1cccc(C(=O)OCC(=O)N(Cc2ccccc2)C(C)(C)C)c1	inactive: 6.47%	
Cc1cccc(N(C(=O)Cc2cccs2)C(C(=O)NCc2ccco2)c2ccncc2)c1 (stereo unspecified)	inactive: -11.3%	
COc1ccc(-n2c(=O)c3c(C)c(C)sc3n(Cc3ccc(F)cc3)c2=O)c(OC)c1	inactive: -13%	
COc1cc(/C(C)=N/NC(=S)NC(C)C)cc(OC)c1OC	inactive: -6.6%	
CCOC(=O)c1ccccc1NC(=O)COC(=O)C(Cc1c[nH]c2ccccc12)NC(C)=O (stereo unspecified)	inactive: 12.6%	
COc1ccc(S(N)(=O)=O)cc1C(=O)OCC(=O)Nc1sccc1C#N	inactive: 16.1%	
CCN(CC)S(=O)(=O)c1ccc(OC)c(NC(=O)Cn2cnc3c2c(=O)n(C)c(=O)n3C)c1	inactive: -17%	
Cc1nn(-c2ccccc2)c(C)c1/C=N/NC(=O)c1cc(-c2cccc3ccccc23)n[nH]1	inactive: 12.4%	
COc1ccccc1-c1nnc(SCC(=O)Nc2ccc(N3CCOCC3)cc2)n1N	inactive: 13.7%	
CCn1nc(C)c(CNC(=O)C2CCC(=O)N(Cc3cccc(F)c3)C2)c1C (stereo unspecified)	inactive: 2.15%	
